From the RNAGym collection of RNA variant scans (doi:10.1101/gad.245936.114)
Variants at the background level are over-represented here.

B1: tRNA (parent)
chain: CUCUCGGUAGCCAAGUUGGUUUAAGGCGCAAGACUUUAAUUUAUCACUACGAAAUCUUGAGAUCGGGCGUUCGACUCGCCCCCGGGAGAUUUUUUCCUCGAGCAA

Variants of: B1
Assay: nonsense suppression (GFP-seq) (ratio to wild type); higher = more function; SUP4oc tRNA, yeast GFP reporter sort-seq
Outline: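 Sorted GFP/RFP bins of yeast were each Illumina-sequenced with a phred ≥30 cutoff; the cells held a genome-integrated ochre-suppressor tRNA variant from a library with ~3% random mutations, a galactose-driven GFP ochre reporter, and RFP. Culture was in raffinose/galactose medium containing 80 mg/L adenine. Nonsense suppression, termed GFPSEQ, is the median GFP/RFP of the bins weighted by each variant's estimated cell share per bin, relative to the unmutated parent tRNA, for variants reaching ≥100 reads and ≥30 cells.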

Row | Variant | nonsense suppression
1 | C12G A13C U22C U63G G86U | ≤ 0.026
2 | C12G A14C G61C A62C G73U | ≤ 0.026
3 | C12G A14C U20C A31U | ≤ 0.026
4 | C12G A14C U57G C75G G78A | ≤ 0.026
5 | C12G A14U A30G A31G A60G G78C | ≤ 0.026
6 | C12G A14U G86C | ≤ 0.026
7 | C12G A24C U55G G66C | ≤ 0.026
8 | C12G A24G U35G G61A U71A G86A | ≤ 0.026
9 | C12G A31C G59U | ≤ 0.026
10 | C12G A31G A62U C77A G78A A89U | ≤ 0.026
11 | C12G A33C A74C | ≤ 0.026
12 | C12G A33G C83G | ≤ 0.026
13 | C12G A33G U76G | ≤ 0.026
14 | C12G A33U G59C C68G | ≤ 0.026
15 | C12G A60U G65U | ≤ 0.026
16 | C12G A89C | ≤ 0.026
17 | C12G C27A A89G | ≤ 0.026
18 | C12G C27G U63C | ≤ 0.026
19 | C12G C29U U35A C56A | ≤ 0.026
20 | C12G C34G U57C U58C | ≤ 0.026
21 | C12G C34G U71C C80U G88A | ≤ 0.026
22 | C12G C64A A74U | ≤ 0.026
23 | C12G C68A G85C | ≤ 0.026
24 | C12G C68G G69U A89U | 0.0702

Row | Variant | nonsense suppression
25 | C12G C80G G86C | ≤ 0.026
26 | C12G C81U | ≤ 0.026
27 | C12G G15C A60U G61U U70G | ≤ 0.026
28 | C12G G15C G67U | ≤ 0.026
29 | C12G G18C | ≤ 0.026
30 | C12G G25A G69C | ≤ 0.026
31 | C12G G26C G59A C83A | ≤ 0.026
32 | C12G G28A G66C | ≤ 0.026
33 | C12G G28C U58A G78A | ≤ 0.026
34 | C12G G28U C72G | ≤ 0.026
35 | C12G G32U U57C | ≤ 0.026
36 | C12G G59A G61A | ≤ 0.026
37 | C12G G59C | ≤ 0.026
38 | C12G G59U G84A | ≤ 0.026
39 | C12G G61C | ≤ 0.026
40 | C12G G65C | ≤ 0.026
41 | C12G G66A C80A | ≤ 0.026
42 | C12G G69A G84U | ≤ 0.026
43 | C12G G69U C77G | ≤ 0.026
44 | C12G G86U | ≤ 0.026
45 | C12G G88C | ≤ 0.026
46 | C12G U16A | ≤ 0.026
47 | C12G U16A G25U A62C U71A C79G | ≤ 0.026
48 | C12G U16A U70A | ≤ 0.026

Row | Variant | nonsense suppression
49 | C12G U16C A23G | 0.207
50 | C12G U17A A62G | ≤ 0.026
51 | C12G U21A G59U | ≤ 0.026
52 | C12G U21C G59U G88C | ≤ 0.026
53 | C12G U21C U63A A87U | ≤ 0.026
54 | C12G U21G U22G | ≤ 0.026
55 | C12G U22G C27U | ≤ 0.026
56 | C12G U22G C83U G86C | ≤ 0.026
57 | C12G U35A U58A U63A G78A | ≤ 0.026
58 | C12G U35G | ≤ 0.026
59 | C12G U55A | ≤ 0.026
60 | C12G U55A U71C C81A G85U G88C | ≤ 0.026
61 | C12G U55C G73U | ≤ 0.026
62 | C12G U55C G85U | ≤ 0.026
63 | C12G U55C U57G | ≤ 0.026
64 | C12G U57A | ≤ 0.026
65 | C12G U57G A74U C79A | ≤ 0.026
66 | C12G U63A | ≤ 0.026
67 | C12G U63G | ≤ 0.026
68 | C12G U70G | ≤ 0.026
69 | C12G U71G | 0.859
70 | C12G U76C | ≤ 0.026
71 | C12U A13C | 0.2
72 | C12U A13C A33G | ≤ 0.026

Row | Variant | nonsense suppression
73 | C12U A13G A24U | ≤ 0.026
74 | C12U A13G A30C | ≤ 0.026
75 | C12U A13G A30U U71G | ≤ 0.026
76 | C12U A13G U21A | 0.0262
77 | C12U A13U | 0.626
78 | C12U A13U C79U | 0.0331
79 | C12U A14C U16A | ≤ 0.026
80 | C12U A23C G78C | ≤ 0.026
81 | C12U A23C U70C | ≤ 0.026
82 | C12U A23G C29A | ≤ 0.026
83 | C12U A23G G32C | ≤ 0.026
84 | C12U A23G G73A U76G C81U C83A G88U | ≤ 0.026
85 | C12U A23G G85U | ≤ 0.026
86 | C12U A24G U58C G59C G73C G85C | ≤ 0.026
87 | C12U A30C C56G | ≤ 0.026
88 | C12U A30C C83U | ≤ 0.026
89 | C12U A30C G59C G61U | ≤ 0.026
90 | C12U A33C C80G | ≤ 0.026
91 | C12U A54C | 0.0512
92 | C12U A54G | 0.0372
93 | C12U A54U | 0.229
94 | C12U A60G | 0.406
95 | C12U A60G G73U | ≤ 0.026
96 | C12U A60G U71C | ≤ 0.026

Row | Variant | nonsense suppression
97 | C12U A60U C72G U76G G84U | ≤ 0.026
98 | C12U A62U C79A | ≤ 0.026
99 | C12U A62U U70G | ≤ 0.026
100 | C12U A89C | ≤ 0.026
101 | C12U A89G | ≤ 0.026
102 | C12U C27A G65A G85A | ≤ 0.026
103 | C12U C27U G88U | ≤ 0.026
104 | C12U C29G | ≤ 0.026
105 | C12U C29U | 0.206
106 | C12U C29U A54G C68A C75G | ≤ 0.026
107 | C12U C34A A62G G69U | ≤ 0.026
108 | C12U C34A U70G C83G | ≤ 0.026
109 | C12U C34G | ≤ 0.026
110 | C12U C34G G61U A87G | ≤ 0.026
111 | C12U C34U | ≤ 0.026
112 | C12U C64G | ≤ 0.026
113 | C12U C64G G78C | ≤ 0.026
114 | C12U C64U C80A | ≤ 0.026
115 | C12U C72A | ≤ 0.026
116 | C12U C72U | ≤ 0.026
117 | C12U C75G | 1.23
118 | C12U C75U A87C | ≤ 0.026
119 | C12U G15C C72G C77U | ≤ 0.026
120 | C12U G18C C56A | ≤ 0.026

Row | Variant | nonsense suppression
121 | C12U G18U U20G | ≤ 0.026
122 | C12U G19U C27U U63A G65A A87U | ≤ 0.026
123 | C12U G19U U57C C72G G78U | ≤ 0.026
124 | C12U G25C | 0.184
125 | C12U G25C A87C | ≤ 0.026
126 | C12U G25U | 0.192
127 | C12U G26A | ≤ 0.026
128 | C12U G26U G84A | ≤ 0.026
129 | C12U G28A | 0.51
130 | C12U G32C | ≤ 0.026
131 | C12U G32C C77U G78U | ≤ 0.026
132 | C12U G32C G78C | ≤ 0.026
133 | C12U G32U C56G U58C G85C | ≤ 0.026
134 | C12U G32U U58C G61U | ≤ 0.026
135 | C12U G59A G65C | ≤ 0.026
136 | C12U G59C | ≤ 0.026
137 | C12U G59C A87U | ≤ 0.026
138 | C12U G61U | 0.248
139 | C12U G65C | ≤ 0.026
140 | C12U G65U A74C | ≤ 0.026
141 | C12U G66C | ≤ 0.026
142 | C12U G67C | ≤ 0.026
143 | C12U G67C A74C | ≤ 0.026
144 | C12U U16C | 0.853

Row | Variant | nonsense suppression
145 | C12U U16C G19C | ≤ 0.026
146 | C12U U17C A89G | ≤ 0.026
147 | C12U U17C A89U | ≤ 0.026
148 | C12U U17G U35A | ≤ 0.026
149 | C12U U20A C83G | ≤ 0.026
150 | C12U U20G C80G | ≤ 0.026
151 | C12U U20G G84C | ≤ 0.026
152 | C12U U20G U70C A74C | ≤ 0.026
153 | C12U U21A U57G C77G | ≤ 0.026
154 | C12U U21C A30C A33U | ≤ 0.026
155 | C12U U21G C77U | ≤ 0.026
156 | C12U U21G U22G C27A C34A | ≤ 0.026
157 | C12U U22C G25C U55G G59A U63G | ≤ 0.026
158 | C12U U22G G26U | ≤ 0.026
159 | C12U U35A C77U | ≤ 0.026
160 | C12U U35C G61C | ≤ 0.026
161 | C12U U35C U58A | ≤ 0.026
162 | C12U U55C C82A | ≤ 0.026
163 | C12U U57A A62U | ≤ 0.026
164 | C12U U57C | ≤ 0.026
165 | C12U U57G G86C | ≤ 0.026
166 | C12U U58G | ≤ 0.026
167 | C12U U58G A60C | ≤ 0.026
